Source: ChEMBL document CHEMBL1201862, “PubChem BioAssay data set” (2004)

Tested on: NCI-H322M
Assay: growth of human tumour cells (NCI), 48 h

SMILES | GI50
O=C1OC(C(O)CO)C(O)=C1O (centres undefined) | inactive: > 100 µM
O=C(O)CCCNS(=O)(=O)c1ccc2ccccc2c1 | inactive: > 100 µM
CCOC(=O)c1ccc(N2C(=O)Cc3ccccc3C2=O)cc1 | inactive: > 100 µM
CCOC(=O)CNC(=O)C(CCC(=O)N(C)O)NC(=O)CCC(N)C(=O)O (centres undefined) | inactive: > 100 µM
COc1cc2c3c(c4ccc(O)cc4c2cc1OC)[C@@H](O)[C@@H]1CCCN1C3 | active: < 0.001 µM
NC(CSC1(c2ccc(Cl)cc2)c2ccccc2-c2ccccc21)C(=O)O (centres undefined) | inactive: 41.1 µM
COc1ccc2[nH]cc([C@@H]3C4CCC(C4)[C@H]3NCc3cccc(CN[C@H]4C5CCC(C5)[C@@H]4c4c[nH]c5ccc(OC)cc45)c3)c2c1 | inactive: 1.62 µM and inactive: 1.63 µM
CC(=O)N1C(=O)/C(=C\C(=O)c2ccc(Cl)cc2)c2ccccc21 | inactive: 21.7 µM
O=c1cc(O)c1=O | inactive: > 100 µM
COc1cc(Cc2cc(OC)c(OC)c(OC)c2)ccc1O | inactive: 11.9 µM
COc1c(Cl)c(=O)oc2ccc(Cl)cc12 | inactive: > 100 µM
CCc1ccccc1NC(=O)C1=C(C)NC(C)=C(C(=O)Nc2ccccc2CC)C1c1cccc([N+](=O)[O-])c1 | inactive: 28 µM
CC1(C)C2CCC3(OCCO3)C1C(O)C2 (centres undefined) | inactive: > 100 µM
O=c1[nH]cnc(NC2C=C(CO)C(O)C2O)c1[N+](=O)[O-] (centres undefined) | inactive: > 100 µM
O=C(O)c1ccccc1C(=O)c1ccco1 | inactive: > 100 µM
O=C1N/C(=N/N=C/c2c[nH]c3ccccc23)N/C1=C\c1cccs1 | inactive: > 100 µM
O=C1c2ccccc2C(=O)c2c(OCCOCCO)cccc21 | inactive: 82.4 µM
O=C(N[C@@H](Cc1ccccc1)B(O)O)[C@H](Cc1cccc2ccccc12)NC(=O)N1CCOCC1 | active: 0.155 µM
COc1cc(/C=C2\C[C@H]3[C@@H]4CC=C5C=C(N6CCCC6)CC[C@]5(C)[C@H]4CC[C@]3(C)C2=O)cc(OC)c1OC | inactive: 9.89 µM
C/C(=N\N)C(CN1CCCCC1)C(c1ccccc1)c1c(O)c2ccccc2oc1=O (centres undefined) | inactive: > 100 µM
Cc1cc(C)n(C(=CC(=O)C(Cl)Cl)n2nc(C)cc2C)n1 | inactive: 13.1 µM
CSCCC(N)P(C)(=O)O (centres undefined) | inactive: > 100 µM
COc1ccc(OC)c(C(=O)/C=C/c2cc(O)c(O)cc2F)c1 | active: 0.546 µM
O=C1C(S(=O)(=O)c2ccccc2)=C(CS(=O)(=O)c2ccccc2)[C@@H](OCc2ccccc2)[C@@H]1OCc1ccccc1 | inactive: 19 µM

SMILES | GI50
CC1(C)C=[N+]([O-])C(C)(C)N1O | inactive: > 10 µM
Cn1c(=O)ccc2c(=O)c3ccccc3oc21 | inactive: > 100 µM
COc1cc(C)cc2c1C(=O)C(NC(C)=O)=CC2=O | inactive: > 100 µM
CC1(C)CC2C(C1=O)C1(C)CCCC2(C)C1=O (centres undefined) | inactive: > 100 µM
COC(=O)c1ccccc1CC(Cc1ccccc1)C(=O)OC (centres undefined) | inactive: > 100 µM
COc1ccc(/C=C2\CCC/C(=C\c3ccc(O)c(CN4CCCCC4)c3)C2=O)cc1 | inactive: 16.4 µM
CC(=O)OCc1c(C)c2ccccc2n1C(C)=O | inactive: > 100 µM
N[C@@H]1C[C@H](N)c2c(Cl)sc(Cl)c21 | inactive: > 100 µM
O=C1CCC(c2nc3cc(Cl)ccc3o2)C(=O)N1 (centres undefined) | inactive: > 100 µM
Cc1nc(Cl)c(C)c(Cl)n1 | inactive: > 100 µM
N#Cc1c2c(c(-c3cccs3)n(C3OC(CO)C(O)C(O)C3O)c1=S)CCc1ccccc1-2 (centres undefined) | inactive: > 100 µM
C/C(Cc1ccc2c(c1)OCO2)=N\N=c1\sc2ccccc2n1C | inactive: > 100 µM
COc1ccc(P2(=S)SP(=S)(c3ccc(Cl)cc3)S2)cc1 (centres undefined) | inactive: > 100 µM
COC(=O)Nc1nc2cc(C(=O)c3ccc[nH]3)ccc2[nH]1 | inactive: 6.07 µM
CC(C)(C)C1=CC(=N/N=c2\scc(-c3ccccc3)n2Cc2ccccc2)C=C(C(C)(C)C)C1=O | inactive: > 100 µM
c1ccc(COc2cccc3ccc[n+](Cc4ccccc4)c23)cc1 | inactive: 11.6 µM
Cn1cc(-c2csc(-c3cn(C)c4ccccc34)n2)c2ccccc21 | inactive: 24.5 µM
O=C1CCC(=O)C1=NNc1ccccc1 | inactive: > 100 µM
C=C[C@@H]1C(CO)=CCC2[C@H]1CCC1C(C)(C)C(=O)CC[C@]21C (some centres undefined) | inactive: > 100 µM
Cc1nc2sc3cccc(Cl)c3n2c(=O)c1/N=N/c1ccc(Cl)cc1 | inactive: > 100 µM
CN1Nc2ccccc2CC1=O | inactive: > 100 µM
C=CCN1C(=O)/C(=C/c2ccc(C)cc2)N=C1SC1OC(COC(C)=O)C(OC(C)=O)C(OC(C)=O)C1OC(C)=O (centres undefined) | inactive: 69.3 µM
COc1nc(Cl)nc(N[C@H](C)c2c3ccccc3cc3ccccc23)n1 | inactive: 2.2 µM
COC(=O)CCC(=O)c1ccc2c(c1)CCC2 | inactive: > 100 µM

SMILES | GI50
CC(O)C(CO)NC(=O)C1CSSCC(NC(=O)C(N)Cc2ccccc2)C(=O)NC(Cc2ccccc2)C(=O)NC(Cc2c[nH]c3ccccc23)C(=O)NC(CCCCN)C(=O)NC(C(C)O)C(=O)N1 (centres undefined) | inactive: > 100 µM
O=C1c2c(Br)sc(Br)c2C(=O)C1(O)O | inactive: > 100 µM
Cc1ccc(C(=O)CC2=Nc3nnc(CCCCCCCc4nnc5n4C(=O)C(CC(=O)c4ccc(C)cc4)=N5)n3C2=O)cc1 | inactive: > 100 µM
CN1NC(c2ccc(Cl)cc2)=C(C#N)C(=O)CC1c1ccccc1 (centres undefined) | inactive: > 100 µM
CC(C)CC(N)C(=O)OCN1C(=O)C2C3C=CC(C2C1=O)C1C2C(=O)N(COC(=O)C(N)CC(C)C)C(=O)C2C31 (centres undefined) | inactive: > 100 µM
O=C(Cc1ccccc1)NN1C(=O)C(Cl)C1c1ccc(Cl)cc1 (centres undefined) | inactive: > 100 µM
Cc1oc2c(c1C)S(=O)(=O)C(C#N)=CN2 | inactive: > 100 µM
CCC1=C(CC2NCCc3cc(OC)c(OC)cc32)CC2c3ccccc3CCN2C1 (centres undefined) | inactive: 16.4 µM
CC1=CC(=O)CC2(C)CCC(C(C)CC(=O)CC(C)C)CC12 (centres undefined) | inactive: 57.3 µM
Cc1ccc(-c2nc3cc(F)c(N4CCN(C)CC4)cc3[nH]2)cc1 | inactive: 19.5 µM
O=C(O)[C@@H](NS(=O)(=O)c1ccc(F)cc1)c1ccccc1 | inactive: > 100 µM
CCCCCCCc1cscc1-c1cscc1Br | inactive: > 100 µM
C=C1C(=O)OC2C[C@@]3(C)CCCC(=C)C3CC12 (some centres undefined) | inactive: 15.2 µM
O=C1NNC2NC(=O)C3(NN2C1=O)c1ccccc1-c1ccccc13 (centres undefined) | inactive: > 100 µM
O=C1C=CC=C/C1=C1/SC(c2ccccc2)=C(O)N1c1ccccc1 | inactive: > 100 µM
Oc1ccc2ccccc2c1/N=N/c1cccc2ccccc12 | inactive: > 100 µM
CC1CCC(C(C)C)C(O[C@@H]2OC(=O)C[C@@H]2Sc2ccccc2)C1 (some centres undefined) | inactive: 32 µM
CC#CC#C/C(=C/C=CC(=O)OC)SC | inactive: > 100 µM
Cc1cc2c(cc1Cl)Sc1n[nH]c(=O)n1S2(=O)=O | inactive: 61.5 µM
O=C(O)c1ccccc1CN1CCCC(C(=O)O)C1 (centres undefined) | inactive: > 100 µM
COc1ccc2c(c1)Cc1c(NCCN(C)C)ccc(C(=O)NCCCN(C)CCCNC(=O)c3ccc(NCCN(C)C)c4c3Nc3ccc(OC)cc3C4)c1N2 | active: < 0.01 µM
NC1=NS(=O)(=O)Nc2nc(-c3ccc([N+](=O)[O-])o3)[nH]c21 | inactive: 16.2 µM
NC1C2C=CC(C2)C1C(=O)O (centres undefined) | inactive: > 100 µM
C[N+](C)(C)CC(=O)N/N=c1\cc(C(=O)Nc2ccc(N=O)cc2C#N)oc2cc(O)ccc12 | inactive: > 100 µM

SMILES | GI50
O=C1[C@@H]2C(c3c(Cl)cccc3Cl)=NO[C@@H]2C(=O)N1c1ccc(Cc2ccc(N3C(=O)[C@H]4C(c5c(Cl)cccc5Cl)=NO[C@H]4C3=O)cc2)cc1 | inactive: > 100 µM
CCOC(=O)CC(=O)ON(C)C(=O)Cc1ccccc1 | inactive: > 100 µM
Cc1ccc(S(=O)(=O)N/N=C/C(=C/c2ccc(Cl)cc2)CC(/C=N/NS(=O)(=O)c2ccc(C)cc2)=C\c2ccc(Cl)cc2)cc1 | inactive: 14.9 µM
[N-]=[N+]=NC1(c2ccccc2)C(=O)Nc2ccccc2C1=O (centres undefined) | inactive: 88.5 µM
Clc1cc(Cl)cc(C2ON=C(c3ccccc3)N2C23CC4CC(CC(C4)C2)C3)c1 (centres undefined) | inactive: > 10 µM
C=C1N(C)c2ccc(S(=O)(=O)c3ccc4c(c3)C(C)(C)C(=C)N4C)cc2C1(C)C | inactive: 73.6 µM
Cc1ccc(C)c(NC(=O)/C(=N\N)C(c2cnc3ccc([N+](=O)[O-])cc3n2)[N+](=O)[O-])c1 (centres undefined) | inactive: 69 µM
CC(=O)OCCOCNC(=S)N/N=C/c1cc(Br)cs1 | inactive: > 100 µM
COc1ccc(C2ON(c3ccccn3)CC=C2C)cc1 (centres undefined) | inactive: > 100 µM
NC1CC(=O)c2sc(I)cc21 (centres undefined) | inactive: > 100 µM
CC(=O)OC(OC(C)=O)c1ccc2ccc3cccc4ccc1c2c34 | inactive: 40.1 µM
CCOC(=O)N1CCN(c2ccc3c(C)cc(C)nc3n2)CC1 | inactive: > 100 µM
C=CCCC(=O)CC(=O)OCc1ccccc1 | inactive: > 100 µM
NCCCCC(N)C(=O)N1CCN(c2nc(N3CCCC3)c3nc(Cl)c(NCc4ccccc4)nc3n2)CC1 (centres undefined) | inactive: 18 µM
O=C(Nc1ccccc1C(=O)NCCCO)/C(=C/c1ccccc1O)NC(=O)c1ccccc1 | inactive: > 92 µM
CC1C2CC=CC(=O)[C@@]2(C)CCC12OCCO2 (some centres undefined) | inactive: > 100 µM
CCOC(=O)C(Cc1ccc(N=NN(C)C)cc1)NC(=O)CC1c2ccccc2-c2ccccc21 (centres undefined) | inactive: > 100 µM
CC1(C)C(O)C[C@@H](O)[C@@]2(C)C1CC[C@]1(C)C2C[C@@H](O)[C@@H]2C([C@@]3(C)CC[C@@H](C(C)(C)O)O3)CCC21C (some centres undefined) | inactive: 19.9 µM
Cc1ccc2c(O)cc(-c3cc(C)sc3C)nc2n1 | inactive: 5.69 µM
Cc1occc1/C(S)=N\c1ccc(Cl)c(C(=O)OCC(F)(F)F)c1 | inactive: 29.4 µM
CC#N.O[C@@H]1CCCC[C@@H]1O.O[C@@H]1CCCC[C@@H]1O.[TeH2] | inactive: 69.5 µM
COc1ccc2cc(CNCCCCCCCCCCCCNCc3ccc4cc(OC)ccc4c3)ccc2c1 | inactive: 18.4 µM

Values joined by “and” are separate entries in the source; they are usually repeats but may differ in a detail not shown here. Equal values may be shown once.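 48-hour exposure; five concentrations; linearly interpolated endpoints. The concentration for 50% growth inhibition is given as GI50.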 Active and inactive are the calls of the source. Rule as the data show it: active = GI50 up to about 1.1 µM and inactive = higher.
